For the assay, the target named is human IL-4Rα on TF-1 cells (human) (UniProt P24394). In words: cell-based or functional assay.

The results in this text go back to patent EP2245064B1.

Sequence of UniProt P24394 (P24394 26-825): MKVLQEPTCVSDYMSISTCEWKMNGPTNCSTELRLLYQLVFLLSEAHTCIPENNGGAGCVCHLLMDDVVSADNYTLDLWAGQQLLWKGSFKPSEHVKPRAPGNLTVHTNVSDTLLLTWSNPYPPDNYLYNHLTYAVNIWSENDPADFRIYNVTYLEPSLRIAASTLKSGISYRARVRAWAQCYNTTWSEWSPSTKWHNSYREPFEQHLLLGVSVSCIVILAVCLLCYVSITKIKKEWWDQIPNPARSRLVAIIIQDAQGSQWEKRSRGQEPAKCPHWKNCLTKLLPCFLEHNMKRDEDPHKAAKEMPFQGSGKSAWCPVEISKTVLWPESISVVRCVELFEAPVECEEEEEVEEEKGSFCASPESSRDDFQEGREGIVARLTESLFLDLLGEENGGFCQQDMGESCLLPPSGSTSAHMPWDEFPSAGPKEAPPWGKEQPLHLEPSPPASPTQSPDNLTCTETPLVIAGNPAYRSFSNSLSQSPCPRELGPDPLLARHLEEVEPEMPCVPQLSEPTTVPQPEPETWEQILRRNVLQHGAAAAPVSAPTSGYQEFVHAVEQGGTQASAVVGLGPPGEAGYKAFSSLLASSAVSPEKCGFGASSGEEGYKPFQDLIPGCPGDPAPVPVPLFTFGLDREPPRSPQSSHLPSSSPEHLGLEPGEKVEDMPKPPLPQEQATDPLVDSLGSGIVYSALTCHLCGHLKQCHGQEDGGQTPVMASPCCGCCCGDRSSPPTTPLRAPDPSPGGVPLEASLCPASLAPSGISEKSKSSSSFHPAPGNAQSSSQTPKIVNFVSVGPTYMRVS

B1: 12B5 benchmark antibody (antibody, from another filing, V domains shown)
VH: EVQLVQSGGGLVHPGGSLRLSCAGSGFTFSRNAMFWVRQAPGKGLEWVSGIGTGGATNYADSVKGRFTISRDNAKNSLYLQMNSLRAEDMAVYYCARGRYYFDYWGQGTLVTVSS
VL: [gap - about 100 residues]
B1: the IC50, IL-4 induced TF-1 cell proliferation is 42.7 pM and the IC50, IL-13 induced TF-1 cell proliferation came to 79.1 pM.
